Reference: PubChem BioAssay AID1030 (National Center for Advancing Translational Sciences (NCATS), 2008)
The campaign covered roughly 220,000 compounds. About 16,000 (7.3%) were called active. Inconclusive results, whose numbers are uncertain, are shown with a selection of clear calls. Calls follow the shape of the dose curve; as a rule, active = well fitted inhibition curve with a large enough effect (not every such curve was filed as active); inconclusive = small, poorly fitted or top-dose-only effect, or another doubt; inactive = no such curve, though single readings can be large or run the other way. Where the call is inconclusive, the potency comes from a doubtful curve fit.

target: Aldehyde dehydrogenase 1A1 (Homo sapiens) (UniProt P00352); test: qHTS Assay for Inhibitors of Aldehyde Dehydrogenase 1 (ALDH1A1); details: Purified ALDH1A1, NADH fluorescence, propionaldehyde substrate; series mostly up to 75.3 µM
Potency is read from the fitted curve at half-maximal effect; tags tell the direction and shape of the fitted curve.

Sequence of UniProt P00352 (P00352 whole entry, looked up): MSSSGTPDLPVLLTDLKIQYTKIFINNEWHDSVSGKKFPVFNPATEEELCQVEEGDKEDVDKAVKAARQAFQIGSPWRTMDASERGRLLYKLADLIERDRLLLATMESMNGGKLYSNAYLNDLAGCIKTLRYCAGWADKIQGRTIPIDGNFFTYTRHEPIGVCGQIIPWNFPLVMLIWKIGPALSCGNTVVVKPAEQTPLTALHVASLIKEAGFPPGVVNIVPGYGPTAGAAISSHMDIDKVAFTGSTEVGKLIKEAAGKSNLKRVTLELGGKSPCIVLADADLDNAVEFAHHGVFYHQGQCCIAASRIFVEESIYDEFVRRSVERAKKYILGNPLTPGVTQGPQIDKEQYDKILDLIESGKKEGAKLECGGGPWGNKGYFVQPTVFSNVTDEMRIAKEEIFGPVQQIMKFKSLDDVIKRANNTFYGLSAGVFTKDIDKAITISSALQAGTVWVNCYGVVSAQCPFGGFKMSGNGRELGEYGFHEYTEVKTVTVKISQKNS

Potency, active:
COc1ccc(NC(=S)NC(=O)/C=C/c2ccco2)cc1 7.08 µM, CNc1cc(N2CCCCCC2)ccc1[N+](=O)[O-] 10 µM, CCN(CC)CCCN1C(=O)C(=O)/C(=C(/O)c2ccc3c(c2)OCCO3)C1c1ccc(C)o1 (stereo not given) 25.1 µM, CCCNC(=O)NC(=O)COC(=O)c1ccc(S(=O)(=O)N(C)c2ccccc2OC)cc1 12.6 µM, CC(=O)c1ccc2c(c1)C1C=CCC1C(c1ccc(S(=O)(=O)N3CCOCC3)cc1)N2 (stereo not given) 25.1 µM, CN(C)c1ccc(C(=S)N2CCN(Cc3ccccc3)CC2)cc1 31.6 µM, Cc1ccc(CSCC(N)C(=O)O)cc1 (stereo not given) 31.6 µM

Potency, inactive:
Cc1ccc(NC(=O)CSc2nnc(Cn3cnc4ccccc43)o2)cc1, Cc1ccc(CN2CCN(/N=C/c3ccc(Cl)c([N+](=O)[O-])c3)CC2)cc1, Cn1cccc1/C=C1\SC(=O)N(CC(=O)Nc2ccc(F)cc2)C1=O, O=C(Nc1ccccn1)Nc1cccs1, CCCNc1cc(C)oc(=O)c1C(=O)CC, CC(C)(C)CC(C)(C)c1ccc(O)c(Cc2ccc(Cl)cc2Cl)c1, CCn1cc(C2=NOC(C(=O)Nc3cccc(C(C)=O)c3)C2)c(C)n1 (stereo not given), O=S(=O)(c1ccc(-c2ccccc2)cc1)N1CCOCC1

Potency, inconclusive:
O=C(CCn1c(=O)c2ccccc2n(Cc2cc(=O)n3ccccc3n2)c1=O)NCc1ccco1 35.5 µM [inhibitor, single point], CCN(CC)c1ccc(/C=N/NC(=S)NC)c(O)c1 39.8 µM [inhibitor, single point], O=C(CNC(c1ccccc1)c1ccccc1)Nc1ccccc1-c1ccccc1 39.8 µM [inhibitor, single point], O=C(c1cc(F)ccc1F)C1CCCN(C(=O)CCCN2CCCCC2=O)C1 (stereo not given) 20 µM [inhibitor, single point], O=C(O)CCc1n[nH]c(=S)[nH]c1=O 37.7 µM [inhibitor, single point], COc1ccc(OCc2nnc(SC(C)C(=O)Nc3nccs3)n2-c2ccccc2)cc1 (stereo not given) 44.7 µM [inhibitor, single point], COC(=O)C1=C(C)NC(=O)NC1c1ccc(N2CCC(c3ccccc3)=N2)cc1 (stereo not given) 31.6 µM [inhibitor, partial curve], COc1cc(/C=N/Nc2ccc(Cl)c(C(=O)O)c2)ccc1OC(=O)c1ccco1 39.8 µM [inhibitor, single point], C(#CCN1CCCC1)CC(c1ccccc1)c1ccccc1 39.8 µM [inhibitor, single point], O=c1cc(CN2CCCCCC2)nc2sccn12 35.5 µM [inhibitor, single point], COc1ccc(OCC(=O)N2CCN(C(=O)c3cccc4ccccc34)CC2)cc1 22.4 µM [inhibitor, partial curve], COC(=O)N1CCC2(CC1)CN(c1cccc(-c3ccccc3)c1)C2 39.8 µM [inhibitor, single point], c1ccc(-c2nnsc2-c2nc3ccccc3[nH]2)cc1 35.5 µM [inhibitor, single point], Cc1ccn2c(Nc3ccccc3C)c(-c3ccncc3)nc2c1 39.8 µM [inhibitor, single point], CC(C)(C)NC(=O)NC(=O)COC(=O)Cn1c(C(F)(F)F)nc2ccccc21 39.8 µM [inhibitor, single point], CC(C)CCN1C(=O)c2ccc(C(=O)Nc3c[nH]c(=O)[nH]c3=O)cc2C1=O 1 µM [inhibitor, full curve, poor fit], Cc1csc(=Nc2ccccc2)n1CCCN1CCCC1=O 39.8 µM [inhibitor, single point], CC(C)(C)SCCNC(=O)/C=C/c1ccc([N+](=O)[O-])cc1 44.7 µM [inhibitor, single point], c1ccc(COC2CCCN(Cc3nc(-c4cnccn4)no3)C2)nc1 (stereo not given) 39.8 µM [inhibitor, single point], c1csc(-c2ncc3ccccn23)c1 25.1 µM [inhibitor, partial curve], S=c1sc2c(Cl)ncnc2n1-c1ccccc1 39.8 µM [inhibitor, single point], CCN(CC)Cc1c(O)ccc2c(=O)c(-c3ccc4c(c3)OCCO4)coc12 28.2 µM [inhibitor, partial curve], O=C(Nc1cccc2nsnc12)c1ccc2c(c1)OCCO2 17.8 µM [inhibitor, single point], CCOC(=O)c1c(NC(=O)c2ccc(S(=O)(=O)N3CCOCC3)cc2)sc2c1CCN(C)C2 28.2 µM [inhibitor, single point], O=C(CN1CCCCCC1)N/N=C/c1cccc(Cl)c1Cl 44.7 µM [inhibitor, single point], Cc1ccc(S(=O)(=O)N2CCC(c3nc4c(nnn4Cc4ccccc4)c(=O)[nH]3)CC2)cc1 39.8 µM [inhibitor, single point], c1cncc(CNc2ncnc3ccc(-c4ccoc4)cc23)c1 25.1 µM [inhibitor, partial curve], CC(C)OP(=O)(OC(C)C)C1(O)C(=O)Nc2ccc(Br)cc21 (stereo not given) 22.4 µM [inhibitor, single point], O=C(c1cc(F)c(F)cc1Cl)N1CCN(c2ccc([N+](=O)[O-])c3ncccc23)CC1 22.4 µM [inhibitor, single point], CCOc1ccc2nc(NCCNC(=O)C(C)(C)C)c(C)cc2c1 39.8 µM [inhibitor, single point]
